From the RNAGym collection of RNA variant scans (doi:10.7554/elife.90254) come the findings set out here.

Read counts are not given, so values of variants with three or more changes are uncertain.

Sequences and labels used below:
B1: LINE1-full (parent)
chain: UACGUAGGUGGUUUUCCCCUGAUAGUGCUAAGGGGGCCUGGAAGUUUGGACUGGGCAGAGCUCAACACAGCGUGGCAAAGUGGCUGUGGCUAGACUGCCUCUCUGGAUUCCUCGUCACUCAGCAGGGCAUCUCUGAGAGAAAUGCC

Variants of B1 are the subject of this series. Description: self-cleavage, relative activity (ratio to wild type); higher = more cleavage; in vitro, sequencing; the parent is a self-cleaving ribozyme.
In the case of UACGUAGGUGGUUUUCCCCUGAUAGUGCUAAGGGGGCCUGGAAGUUUGGACUGGGCGGAGCUCAACACAGCGUGGCAAAGAGGCUGUGGCUAGACUGCCUCUCUGGAUUCCUCGUCACUCAGCAGGGCAUCUCUGAGGGAAAUGCC [A57G U81A A138G], the self-cleavage was 1.93.

For the variant UACGUAGGUGGUUUUCCCCUGAUAGUGCUAAGGGGGCCUGGGAGUCUGGACUGGGCAGAGCUCAACACAGCGUGGCAAAGUGGCUGUGGCUAGACUGCCUCUCAGGAUUCCUCGUCACUCAGCAGGGCAUCUCUGAGAGAAGUGCC [A42G U46C U104A A142G], the self-cleavage worked out at 1.07.

UACGUAGGUGGUUUUCCCCUGAUAGUGCUAAGGGGGCCUGGAUGUUUGGACUGGGCAGAGCCCAACACAGCGUGGCAAAGUGGCUGUGGCUAGACUGCCUCUCUGGACUCCUCGUCACUCAGCAGGGCAUCUCUGAGAGAAAUGCC [A43U U62C U108C]: the self-cleavage amounted to 0.11.

Consider UGCGUAGGUGGUUCUCCCCAGAUAGUGCUAAGGGGGCCAGGAAGUUUGGACUGGGCGGAGCUCAACACAGCGUGGCAAAGUGGCUGUGGCUAGACUGCCUCUCUGGGUUCCUCGUCACUCAGCAGGGCAUCUCUGAGAGAAAUGCC [A2G U14C U20A U39A A57G A107G], for which the self-cleavage worked out at 0.

With UACGUAGGUGGUUUUCCCCUGAUAGUGCUAAGGGGGCCUGGAAGUUUGGACUGGGCAGAGCUCGACACAGCGUGGCAAAGUGGCUGUGGCCAGACUGCCUCUCUGGAUUCCCCGUCACUCAGCAGGGCAUCUCUGAGAGAAAUGCC [A64G U91C U112C], the self-cleavage came to 0.

For UACGUAGGUGGUUUUCCCCUGAUAGUGCUAAGGGGGCCUGGAAGUUUGGACUGGGCAGAGCUCAACACAGCGUGGCGAAGUGGCUGUGGCUAGACUGCCUCUCUGGAUUCCUCGUCACUCAGCAGGGCAUCUCUGUGAGAGAUGCC [A77G A136U A141G], the self-cleavage came to 2.8.

On to UACGUAGGUGGUCUUCCCCUGAUAGUGCUAAGGAGGCCUGGAAGUUUGGACUGGGCAGAGCUCAACACAGCGUGGCAAAGUGGCUGUGGAUAGACUGCCUCUCUGGAUUCCUCGUCACUCAGCAGGGCAUCUCUGAGAGAAAUGCC [U13C G34A C90A], for which the self-cleavage is 0.05.

Turning to UACGUAGGUGGUUUUCCCCAGAUAGUGCUAAGUGGGCCUGGAAGUUUGGACUGGGCAGAGCUCAACACAGCGUGGCAAAGUGGCUGAGGCUAGACUGCCUCUCUGGAUUCCUCGUCACUCAGCAGGGCAUCUCUGAGGGAAAUGCC [U20A G33U U87A A138G], the self-cleavage was 0.05.

Regarding UACGUAGGUGGUUCUCCCCUGAUAGUGCUAAGGGGGCCAGGAAGUUUGGACUGGGCAGAGCUCAACACAGCGUGGCAAUGUGGCUGUGGCUAGACUGCCUCUCUGGAUUCCUCGUCACUCAGCAGGGCAUCUCUGAGAGAAAUGCC [U14C U39A A79U], the self-cleavage was 1.43.

On to UACGUAGGUGGUUUUCCCCUGAUAGUGCUAAGGGGGCCUGGAAGUUUGAACUGGGCAGAGCUCCACACAGCGAGGCAAGGUGGCUGUGGCUAGACUGCCUCUCUGGAUUCCACGUCACUCAGCAGGGCAUCUCUGAGAGAAAUGCC [G49A A64C U73A A79G U112A], for which the self-cleavage is 0.2.

Take UACGUAGGUGGCUUUCCCCUGAUAGUGCUAAGGGGGCCUGGAAGCUUGGACUGGGCAGAGCCCAACACAGCGUGGCAAAGUGGCUGUGGCUAGUCUGCCUCUCUGGAUUCCUCGCCACUCAGUAGGGCAUCUCUGAGAGAAAUGCC [U12C U45C U62C A94U U115C C123U]: the self-cleavage was determined as 0.

As to UACGUAGGUGGUUUUCCCCUGAUAGUGCUAAGGGGGCCUGGAAGUUGGGACUGGGCAGAGCUCAACACAGCGUGGCAAAGUGGCCGUGGCCAGACUGCCUCUCUGGAUUCCUCGUCACUCAGCAGGGCAUCUCUGAGAGAAAUGCC [U47G U85C U91C], the self-cleavage was 0.

Take UACGUAGGUGGUUUUCCCCUGAUAGUGCUAAGGGGGCCUGGAAGUUUGGACUAGGCAGAGGUCAACACAGCGUGGCAAAGUGGCUGUGGCUAGACUGCCUCUCUGGAUUCCUCGUCACUCAGCAGGGCAUCUCUGAGAGAAACGCC [G53A C61G U143C]: the self-cleavage stood at 0.04.

Take UACGUAGGUGGUUUUCCCCUGAUAGUGCUAAGGGGGCCUGAGAGUUUGGACUGGGCAGAGCUCAACACAGCGUGGCAAAGUGGCUGUGGCUAGACUGCCUCUCUGGAUUCCUCGUCACACAGCAGGGCAUCUCUGAGAGAAAUGCC [G41A A42G U119A]: the self-cleavage is 1.25.

For UACGUAGGUGGUUUUCCCCUGAUAGUGCUAAGGGGGCCUGGAUGUUUGGACUGGGCAGAGCUCUACACAGCGUGGCAAAGUGUCUGUGGCUAGACUGCCUCUCUGGAUUCCUCGUCACUCAGCAGGGCAUCUCUGAGAGAAGUGCC [A43U A64U G83U A142G], the self-cleavage was found to be 0.13.

For the variant UACGUAGGUGGUUUUCCCCUGAUUGUGCUAAGGGGGCCUGGAAGUUUGGACUGGGCAGAGCUCAACACAGCGUGGCAAAGUGGCUGUGGCUAGACUGCCUCACUGGGUUCCUCGUCACUCAGCAGGGCAUCUCUGAGAGAGAUGCC [A24U U102A A107G A141G], the self-cleavage came to 2.72.

As for CACGUAGGUGGUUCUCCCCUGACAGUGCUAAGGGGGCCUGGAAGUUUGGACUGGGCAGAGCUCAACACAGCGUGGCAAAGUGGCUGUGGCUAGACCGCCUCUCUGGAUUCCUCGUCACUCAGCAGGGCAUCUCUGAGAGAAAUGCC [U1C U14C U23C U96C], the self-cleavage was 0.22.

Turning to UACGUAGGUGGUUUUCCCCUGAUAGUGCUUAGGGGGCCUGGAAGUUUGGACUGGGCAGAGCUCAACACAGCGUGGCUAAGUGGCUGUGGCUAUACUGCCUCUCUGGAUUCCUCGUCACUCAGCAGGGCAUCUCUGAGAGAAAUGCC [A30U A77U G93U], the self-cleavage stood at 0.04.

Turning to UACGUAGGUGGUUUUCCCCUGCUAGUGCUAAGGGGGCCUGGAGGUUUGGACUGGGCAGAGCUCAACACAGCGUGGCGAAGUGGCUGUGGCUAGACUGCCUCUCUGGAUUCCUCGUCACUCAGCAGGGCAUCUCUGAGAGAAAUGCC [A22C A43G A77G], the self-cleavage is 1.53.

Consider UACGUAGGUGGUUUUCCCCUGAUAGUGCUGAGGGGGCCUGGUAGUUUGGACUGGGCAGAGCUCAACACAGCGUGGCAAAGCGACUGUGGCUAGACUGCCUCUCUGGAUUCCUCGUCACUCAGCAGGGCAUCUCUGAGAGAAAUGCC [A30G A42U U81C G83A], for which the self-cleavage is 0.89.
